Experimental data taken from patent US10941208B2, “Anti-MUC16 antibodies” (Regeneron Pharmaceuticals, Inc., priority 2016, dated 2021).
Where “and” joins values, the source holds several entries; their conditions need not be identical. Equal values may be shown once. Read-outs that look alike come from different tables or passages of the source.

Legend:
human T cells (CD2+) = experiment: T cell activation (CD69/CD25 upregulation on CD2+ T cells) in cytotoxicity co-culture; format: cell-based
Method: Briefly, MUC16-expressing (OVCAR3) cell lines were labeled with 1 μM of the fluorescent tracking dye Violet Cell Tracker. After labeling, cells were plated overnight at 37° C. Separately, human PBMCs were plated in supplemented RPMI media at 1×10^6 cells/mL and incubated overnight at 37° C. in order to enrich for lymphocytes by depleting adherent macrophages, dendritic cells, and some monocytes. The next day, target cells were co-incubated with adherent cell-depleted unstimulated PBMC (Effector/Target cell 4:1 ratio) and a serial dilution of relevant bispecific antibodies or Isotype control (concentration range: 66.7 nM to 0.25 pM) for 48 hours at 37° C. Cells were removed from cell culture plates using an enzyme-free cell dissociation buffer, and analyzed by FACS. See results represented in Table 8A.
B. In analogous studies, MUC16-expressing (PEO-1 or OVCAR3-Luc) cell lines were labeled, plated and incubated overnight as described. Serial dilutions of MUC16×CD3 bispecific antibodies or isotype control were co-incubated. See results depicted in Tables 8B and 8C, and FIGS. 12A-12B.
For FACS analysis, cells were stained with a dead/live far red cell tracker (Invitrogen). 5×10^5 counting beads were added to each well immediately before FACS analysis. 1×10^4 beads were collected for each sample. For the assessment of specificity of killing, cells were gated on live Violet labeled populations. Percent of live population was recorded and used for the calculation of normalized survival.
T cell activation was assessed by incubating cells with directly conjugated antibodies to CD2, CD69 and/or CD25, and by reporting the percent of early activated (CD69+) T cells and/or late activated (CD25+) T cells out of total T cells (CD2+).

[1] = Pharmacokinetics in wild-type mice; format: in vivo, mouse; conditions: WT mice, single 0.4 mg/kg i.p.
OVCAR-3/Luc = OVCAR-3/Luc xenograft in PBMC-engrafted NSG mice, immediate dosing; format: in vivo; conditions: NSG mice with human PBMCs, 10 μg/mouse i.p. on day of implantation (immediate dosing)
Excerpt: To assess the in vivo efficacy of the anti-MUC16/anti-CD3 bispecifics in human tumor xenograft studies, NOD scid gamma (NSG) mice (Jackson Laboratories, Bar Harbor, Me.) were pre-implanted with human peripheral blood mononuclear cells (PBMCs; ReachBio LLC., Seattle, Wash.) and then given ascites cells from the human ovarian cancer cell line OVCAR-3 (American Type Tissue Culture, Manassas, Va.) transduced with luciferase (OVCAR-3/Luc). OVCAR-3 cells endogenously express MUC-16.
Briefly, NSG mice were injected intraperitoneally (i.p.) with 5.0×10^6 human PBMCs. 8 d later, 1.5×10^6 ascites cells from the OVCAR-3/Luc cell line, previously passaged in vivo, were administered i.p. to the NSG mice engrafted with PBMCs. In the immediate treatment group, mice were treated i.p. on the day of OVCAR-3/Luc cell implantation with MUC16/CD3 Bispecific antibodies BSMUC16/CD3-001 or BSMUC16/CD3-005, or an isotype control, at a dose of 10 μg/mouse (N=5 mice/treatment group). In the therapeutic dose model, mice were treated i.p. 7 d post tumor implantation with the MUC16/CD3 Bispecific or control antibodies described above, at a dose of 10 μg/mouse (N=5/treatment group).
In all studies, tumor growth was monitored via bioluminescent imaging (BLI). […] Regions of interest were drawn around each cell mass and photon intensities were recorded as photons (p)/sec (s)/cm^2/steradian (sr). […]

mouse CD3 = mouse CD3 (Mus musculus, UniProt P04235+P22646); experiment: Binding to mouse CD3
[2] = Pharmacokinetics in CD3 humanized mice (CD3^hu/hu); conditions: single 0.4 mg/kg i.p.

mouse CD3, sequence (P22646 22-189): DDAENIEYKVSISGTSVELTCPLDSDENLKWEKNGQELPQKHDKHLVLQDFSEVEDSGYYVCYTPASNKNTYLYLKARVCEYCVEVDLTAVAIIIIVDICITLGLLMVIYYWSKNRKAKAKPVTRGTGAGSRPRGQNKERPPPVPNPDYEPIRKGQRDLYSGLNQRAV
mouse CD3, sequence (P04235 22-173): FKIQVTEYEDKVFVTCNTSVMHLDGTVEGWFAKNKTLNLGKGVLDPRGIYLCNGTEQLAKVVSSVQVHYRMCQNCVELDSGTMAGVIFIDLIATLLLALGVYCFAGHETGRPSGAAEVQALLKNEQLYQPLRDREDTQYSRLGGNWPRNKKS

B1: BSMUC16/CD3-005: anti-MUC16×CD3 bispecific, modified (chimeric) IgG4 Fc; H1H8767P HCVR (SEQ 18), CD3-VH-G20 (SEQ 1866), common LCVR SEQ 26 (antibody, V domains shown)
VH 1: QVQLVESGGGLVKPGGSLRLSCAASGFTFSNYYMSWVRQAPGKGLEWISYISGRGSTIFYADSVKGRITISRDNAKNSLFLQMNSLRAEDTAVYFCVKDRGGYSPYWGQGTLVTVSS
VH 2: EVQLVESGGGLVQPGRSLRLSCAASGFTFDDYSMHWVRQAPGKGLEWVSGISWNSGSIGYADSVKGRFTISRDNAKNSLYLQMNSLRAEDTALYYCAKYGSGYGKFYYYGMDVWGQGTTVTVSS
VL: [… about 100 residues …]PITFGQGTRLEIK
EC50 (human T cells (CD2+); co-culture with OVCAR3-Luc target cells, read-out: T cells activation (CD25 upregulation) EC50): 117 pM
EC50 (human T cells (CD2+); co-culture with PEO-1 target cells, read-out: T cells activation (CD25 upregulation) EC50): 106 pM
EC50 (human T cells (CD2+); co-culture with PEO-1 target cells, read-out: T cells activation (CD69 upregulation) EC50): 17.2 pM
AUClast [1]: 45 µg·days/mL
Cmax (Peak concentration) [1]: 5000 ng/mL
T1/2 (Estimated half-life observed) [1]: 12 days
Total mAb Concentration In Mouse Serum, Mean ([1]; Time 0.13 d): 4.23 µg/mL
Total mAb Concentration In Mouse Serum, Mean ([1]; Time 0.25 d): 4.53 µg/mL
Total mAb Concentration In Mouse Serum, Mean ([1]; Time 1.00 d): 3.47 µg/mL
Total mAb Concentration In Mouse Serum, Mean ([1]; Time 3.00 d): 2.51 µg/mL
Total mAb Concentration In Mouse Serum, Mean ([1]; Time 7.00 d): 2.02 µg/mL
Total mAb Concentration In Mouse Serum, Mean ([1]; Time 14.00 d): 1.19 µg/mL
Total mAb Concentration In Mouse Serum, Mean ([1]; Time 21.00 d): 1.19 µg/mL
Total mAb Concentration In Mouse Serum, Mean ([1]; Time 28.00 d): 0.71 µg/mL
Avg Bioluminescent Radiance Day 26 (mean ± SD) (OVCAR-3/Luc): 1.5 × 10^3 ± 9.7 × 10^2 photons/sec/cm^2/steradian
binding to mouse CD3 (mouse CD3): Neither BSMUC16/CD3-001 or BSMUC16/CD3-005 bind mouse MUC16 or mouse CD3
AUClast [2]: 36 µg·days/mL
T1/2 (Estimated half-life observed) [2]: 11 days
Terminal antibody concentration [2]: 0.66 µg/mL
Cmax (Peak concentration) ([2]; 0.4 mg/kg): 3600 ng/mL and 3500 ng/mL
Total mAb Concentration In Mouse Serum, Mean ([2]; Time 0.13 d): 3.35 µg/mL
Total mAb Concentration In Mouse Serum, Mean ([2]; Time 0.25 d): 3.40 µg/mL
Total mAb Concentration In Mouse Serum, Mean ([2]; Time 1.00 d): 2.72 µg/mL
Total mAb Concentration In Mouse Serum, Mean ([2]; Time 3.00 d): 1.95 µg/mL
Total mAb Concentration In Mouse Serum, Mean ([2]; Time 7.00 d): 2.31 µg/mL
Total mAb Concentration In Mouse Serum, Mean ([2]; Time 14.00 d): 1.01 µg/mL
Total mAb Concentration In Mouse Serum, Mean ([2]; Time 21.00 d): 1.19 µg/mL
Total mAb Concentration In Mouse Serum, Mean ([2]; Time 28.00 d): 0.66 µg/mL
